Seven molecules from PMC5460246 can be followed below.

Chains of the proteins cited; added tags and fusions are not shown.
UniProt P00546: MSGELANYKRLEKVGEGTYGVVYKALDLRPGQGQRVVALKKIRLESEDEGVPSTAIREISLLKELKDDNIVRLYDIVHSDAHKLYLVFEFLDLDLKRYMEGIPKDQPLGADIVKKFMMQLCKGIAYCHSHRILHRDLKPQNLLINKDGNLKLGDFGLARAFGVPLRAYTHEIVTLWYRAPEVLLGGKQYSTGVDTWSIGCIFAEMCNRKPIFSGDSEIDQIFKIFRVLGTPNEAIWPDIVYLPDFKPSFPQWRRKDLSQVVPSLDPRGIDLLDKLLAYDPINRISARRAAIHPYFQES

Results are given in words; binding and its absence hold for the method and conditions named. For some assays here: In cells and extracts the contact can be indirect. Some binding calls cover weakened binding; strength is not graded here. For some assays here: Sequences can lack the tags named with a protein.

Assay [1] has as its target T1, Clb3-HA (budding yeast) (UniProt P24870).
T1 sequence: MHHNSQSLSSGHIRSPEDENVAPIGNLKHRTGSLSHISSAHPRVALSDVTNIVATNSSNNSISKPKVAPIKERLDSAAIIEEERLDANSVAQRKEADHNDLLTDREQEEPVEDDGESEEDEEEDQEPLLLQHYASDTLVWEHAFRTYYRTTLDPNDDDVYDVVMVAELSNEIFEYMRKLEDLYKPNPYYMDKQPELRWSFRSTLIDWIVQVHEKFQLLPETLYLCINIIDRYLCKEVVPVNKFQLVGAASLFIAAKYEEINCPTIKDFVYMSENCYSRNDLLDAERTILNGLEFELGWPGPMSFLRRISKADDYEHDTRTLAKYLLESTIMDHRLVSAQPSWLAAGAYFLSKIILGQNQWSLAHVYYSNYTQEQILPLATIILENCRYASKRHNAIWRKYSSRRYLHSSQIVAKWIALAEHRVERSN
The experiment in a line: co-IP; immunoprecipitation of Clb3/Cdk1 from a yeast lysate expressing Clb3-HA, before a kinase assay; blot with antibodies against HA and PSTAIR.

Assay [2] deals with T2, Ndd1-VC (budding yeast) (UniProt Q08887).
T2 sequence: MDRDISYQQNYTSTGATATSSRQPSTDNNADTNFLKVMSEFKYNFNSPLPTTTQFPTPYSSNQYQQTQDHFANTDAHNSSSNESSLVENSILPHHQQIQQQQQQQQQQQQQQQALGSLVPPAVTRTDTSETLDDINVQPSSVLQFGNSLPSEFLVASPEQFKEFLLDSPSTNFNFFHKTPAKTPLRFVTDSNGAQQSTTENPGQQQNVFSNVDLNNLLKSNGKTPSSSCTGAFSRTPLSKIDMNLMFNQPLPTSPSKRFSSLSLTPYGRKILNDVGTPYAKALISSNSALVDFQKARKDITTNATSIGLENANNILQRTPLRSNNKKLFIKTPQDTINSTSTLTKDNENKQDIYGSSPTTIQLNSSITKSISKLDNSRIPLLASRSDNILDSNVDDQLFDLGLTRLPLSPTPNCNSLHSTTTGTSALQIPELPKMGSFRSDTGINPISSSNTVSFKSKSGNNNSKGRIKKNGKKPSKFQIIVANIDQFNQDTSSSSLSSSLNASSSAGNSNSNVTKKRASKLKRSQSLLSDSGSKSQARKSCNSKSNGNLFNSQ
The experiment in a line: split reporter; BiFC with Venus fragments: Ndd1-VC in haploid yeast cells, VN fusions from p426 plasmids; fluorescence microscopy; for Fkh2/Ndd1 followed in time after alpha-factor synchronisation and in hydroxyurea-treated cells.

The target in assay [3] is T3, LexA-Fkh2_(387), truncated C-terminal region of Fkh2 (amino acids 387-862) (budding yeast) (UniProt P41813).
T3 sequence: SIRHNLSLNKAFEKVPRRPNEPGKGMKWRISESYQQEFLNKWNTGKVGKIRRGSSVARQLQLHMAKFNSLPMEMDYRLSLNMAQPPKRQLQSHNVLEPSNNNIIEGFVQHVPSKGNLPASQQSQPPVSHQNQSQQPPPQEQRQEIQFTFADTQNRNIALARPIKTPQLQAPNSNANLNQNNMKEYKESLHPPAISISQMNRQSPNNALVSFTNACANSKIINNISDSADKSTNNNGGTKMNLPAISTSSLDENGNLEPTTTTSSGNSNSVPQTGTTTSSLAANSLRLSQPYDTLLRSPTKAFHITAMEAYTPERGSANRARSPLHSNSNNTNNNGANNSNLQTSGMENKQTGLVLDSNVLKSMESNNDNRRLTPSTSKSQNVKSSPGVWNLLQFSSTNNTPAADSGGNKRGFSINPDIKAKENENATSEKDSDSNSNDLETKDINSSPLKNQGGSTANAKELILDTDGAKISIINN
The experiment in a line: two-hybrid; LexA-Fkh2 baits (pBTM117) and AD-Clb1-6 preys (pACT4), overexpressed; yeast spotted onto SDII and SDIV selective media or on a membrane for beta-galactosidase activity.

For assay [4], the target named is T4, Fkh2 full-length (two-hybrid bait) (budding yeast) (UniProt P41813).
T4 sequence: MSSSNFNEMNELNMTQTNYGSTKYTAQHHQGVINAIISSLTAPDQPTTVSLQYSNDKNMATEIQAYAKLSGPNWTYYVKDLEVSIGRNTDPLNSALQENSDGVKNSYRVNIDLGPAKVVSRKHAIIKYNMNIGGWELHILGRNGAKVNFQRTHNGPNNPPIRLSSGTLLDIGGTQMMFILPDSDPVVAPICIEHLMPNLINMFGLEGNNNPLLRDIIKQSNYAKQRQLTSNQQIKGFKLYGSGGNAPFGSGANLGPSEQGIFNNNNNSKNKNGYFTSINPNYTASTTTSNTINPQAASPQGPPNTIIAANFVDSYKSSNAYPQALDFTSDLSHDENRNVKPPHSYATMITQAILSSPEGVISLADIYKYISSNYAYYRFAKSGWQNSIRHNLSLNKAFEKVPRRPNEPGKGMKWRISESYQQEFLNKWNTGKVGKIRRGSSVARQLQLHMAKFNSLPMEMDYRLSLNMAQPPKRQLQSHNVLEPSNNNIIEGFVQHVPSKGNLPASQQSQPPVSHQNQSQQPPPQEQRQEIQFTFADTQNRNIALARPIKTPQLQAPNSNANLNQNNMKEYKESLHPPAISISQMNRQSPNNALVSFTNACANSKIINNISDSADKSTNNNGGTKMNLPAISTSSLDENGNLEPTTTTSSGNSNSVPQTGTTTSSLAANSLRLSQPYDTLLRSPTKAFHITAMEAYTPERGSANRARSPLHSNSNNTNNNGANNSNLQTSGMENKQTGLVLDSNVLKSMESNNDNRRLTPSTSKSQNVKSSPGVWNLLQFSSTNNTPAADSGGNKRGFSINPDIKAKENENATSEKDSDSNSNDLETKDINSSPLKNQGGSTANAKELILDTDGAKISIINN
The assay is described as above.

Assay [5] deals with T5, Ndd1 (two-hybrid fusion, Fig. S5f) (budding yeast) (UniProt Q08887).
T5 sequence: T2 sequence
The experiment in a line: two-hybrid; Yeast-two-Hybrid of Ndd1 with Clb2 and Clb3 (Fig. S5f); bait and prey not told.

In assay [6] the target is T6, Ndd1 (GST pull-down, Supplementary Fig. S5g) (budding yeast) (UniProt Q08887).
T6 sequence: T2 sequence
The experiment in a line: pull-down; GST pull-down of Ndd1 with Clb2 and Clb3 (Supplementary Fig. S5g).

Take “Cdk1 (from UniProt P00546 1-298) (enzyme)”: in assay [1], the binding entry was “binds”.

B1: VN-Clb1 (protein, UniProt P24868 1-471)
chain: MSRSLLVENSRTINSNEEKGVNESQYILQKRNVPRTILGNVTNNANILQEISMNRKIGMKNFSKLNNFFPLKDDVSRADDFTSSFNDSRQGVKQEVLNNKENIPEYGYSEQEKQQCSNDDSFHTNSTALSCNRLIYSENKSISTQMEWQKKIMREDSKKKRPISTLVEQDDQKKFKLHELTTEEEVLEEYEWDDLDEEDCDDPLMVSEEVNDIFDYLHHLEIITLPNKANLYKHKNIKQNRDILVNWIIKIHNKFGLLPETLYLAINIMDRFLCEEVVQLNRLQLVGTSCLFIASKYEEIYSPSIKHFAYETDGACSVEDIKEGERFILEKLDFQISFANPMNFLRRISKADDYDIQSRTLAKFLMEISIVDFKFIGILPSLCASAAMFLSRKMLGKGTWDGNLIHYSGGYTKAKLYPVCQLLMDYLVGSTIHDEFLKKYQSRRFLKASIISIEWALKVRKNGYDIMTLHE
As to B1, in assay [2], the binding result was “no binding”.

B2: AD-Clb3 (protein, UniProt P24870 1-427)
chain: T1 sequence
As for B2, the binding result in assay [3], in assay [4] and in assay [5] was “binds” throughout.

B3: Clb3 (GST pull-down with Ndd1, Supplementary Fig. S5g) (protein, UniProt P24870 1-427)
chain: T1 sequence
In the case of B3, the binding entry in assay [6] is listed as “binds”.

B4: AD-Clb2 (protein, UniProt P24869 1-491)
chain: MSNPIENTENSQNTSSSRFLRNVQRLALNNVTNTTFQKSNANNPALTNFKSTLNSVKKEGSRIPQFTRESVSRSTAAQEEKRTLKENGIQLPKNNLLDDKENQDPSSQQFGALTSIKEGRAELPANISLQESSSAKEIIQHDPLKGVGSSTEVVHNSVENEKLHPARSQLQVRNTESETDSGKKRPISTIVEQELPKKFKVCDENGKEEYEWEDLDAEDVNDPFMVSEYVNDIFEYLHQLEVITLPKKEDLYQHRNIHQNRDILVNWLVKIHNKFGLLPETLYLAINIMDRFLGKELVQLDKLQLVGTSCLFIASKYEEVYSPSIKHFASETDGACTEDEIKEGEKFILKTLKFNLNYPNPMNFLRRISKADDYDIQSRTLAKFLLEISLVDFRFIGILPSLCAAAAMFMSRKMLGKGKWDGNLIHYSGGYTKEELAPVCHMIMDYLVSPIVHDEFHRKYQSRRFMKASIISVQWALKVRKNGYDIMTLHE
Turning to B4, the binding result in assay [3], in assay [4] and in assay [5] was “binds” throughout.

B5: Clb2 (GST pull-down with Ndd1, Supplementary Fig. S5g) (protein, UniProt P24869 1-491)
chain: B4 chain
Take B5: the binding result in assay [6] is given as “binds”.

B6: VN-Clb4 (protein, UniProt P24871 1-460)
chain: MMLEGYTVQPPQSTLIGDIEIQDENANQEVKNVLYQGVQKGIKRLEKRQRRVALGDVTSQKANKIHNAIHNKFHQTKNNFEIENIRSSALVKEQQRDVRHEDSDYFLIDSSEGSSTDDEQVNEDAIDDLLSRRVNDQQIQADEVYEDFDGEMQDVIEEDVDSQIEPLSPINNDEIQTELDRAFEKYFRSVPNPLDDDTHDVVMVVEYASDIFYYLRELEVKYRPNPYYMQNQVELTWPFRRTMIDWLVQLHFRFQLLPETLYLTINIVDRFLSKKTVTLNRFQLVGVSALFIAAKFEEINCPTLDDLVYMLENTYTRDDIIRAEQYMIDTLEFEIGWPGPMPFLRRISKADDYDFEPRTLAKYLLETTIVEPKLVAAAPSWLAAGAYFLSRTILGSNDWSLKHVFYSGYTSSQIIPLASLILENCKNASRRHHSIWKKYFDQKHYRCSQIVEEWIVSTEA
With B6, the binding entry in assay [2] is “no binding”.
